# PubChem BioAssay AID504339 (National Center for Advancing Translational Sciences (NCATS), 2011)
# Where “and” joins values, the source holds several entries; their conditions need not be identical. Equal entries are not always repeated. Hit rate of the full screen: of about 390,000 compounds, about 17,000 (4.4%) were called active. The inconclusive results got no clear call from the source; some entries with a clear call stand among them for comparison. The call rests on the fitted dose curve; in most records, active means well fitted inhibition curve with a large enough effect; inconclusive means small, poorly fitted or top-dose-only effect; inactive means no such curve, though single readings can be large or run the other way. Where the call is inconclusive, the potency comes from a doubtful curve fit.
# Target: Lysine-specific demethylase 4A (Homo sapiens) (UniProt O75164)
# Test: qHTS Assay for Inhibitors of JMJD2A-Tudor Domain; further: nearly all actives have a fitted effect of over 50% in size
# Conditions: AlphaScreen JMJD2A-Tudor / H3K4me3 peptide binding; series mostly up to 114 µM
# Potency means the concentration at half of the fitted maximal effect; tags describe the fitted curve by direction and shape.
# Sequence of UniProt O75164 (O75164 whole entry, looked up, the tested form may be a part): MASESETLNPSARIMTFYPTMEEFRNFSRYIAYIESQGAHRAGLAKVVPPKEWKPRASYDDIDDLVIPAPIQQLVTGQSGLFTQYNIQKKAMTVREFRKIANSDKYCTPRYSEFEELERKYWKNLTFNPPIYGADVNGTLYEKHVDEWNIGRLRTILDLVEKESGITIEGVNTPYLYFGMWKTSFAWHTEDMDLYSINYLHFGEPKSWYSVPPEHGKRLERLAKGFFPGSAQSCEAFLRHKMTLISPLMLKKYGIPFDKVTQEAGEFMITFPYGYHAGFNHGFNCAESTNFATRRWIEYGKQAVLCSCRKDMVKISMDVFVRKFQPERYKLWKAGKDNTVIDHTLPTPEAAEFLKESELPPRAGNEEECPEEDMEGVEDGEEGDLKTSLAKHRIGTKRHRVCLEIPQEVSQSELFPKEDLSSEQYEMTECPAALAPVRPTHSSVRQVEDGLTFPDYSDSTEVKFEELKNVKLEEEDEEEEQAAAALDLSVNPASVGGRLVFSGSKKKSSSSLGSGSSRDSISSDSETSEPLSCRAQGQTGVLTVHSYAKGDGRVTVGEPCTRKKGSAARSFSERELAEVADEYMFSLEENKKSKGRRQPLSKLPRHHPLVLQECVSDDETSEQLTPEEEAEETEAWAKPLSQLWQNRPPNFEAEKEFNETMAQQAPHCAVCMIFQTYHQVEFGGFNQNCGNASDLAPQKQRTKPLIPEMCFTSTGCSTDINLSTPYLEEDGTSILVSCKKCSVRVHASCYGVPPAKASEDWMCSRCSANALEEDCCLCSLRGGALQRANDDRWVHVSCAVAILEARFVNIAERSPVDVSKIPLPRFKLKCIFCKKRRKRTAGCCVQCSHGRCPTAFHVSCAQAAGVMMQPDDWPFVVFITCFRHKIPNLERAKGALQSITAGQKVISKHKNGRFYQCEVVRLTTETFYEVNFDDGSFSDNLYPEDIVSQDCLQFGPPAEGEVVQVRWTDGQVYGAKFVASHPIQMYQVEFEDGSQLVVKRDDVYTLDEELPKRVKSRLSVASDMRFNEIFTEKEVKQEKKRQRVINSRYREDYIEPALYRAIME
row,SMILES,Potency
1,C[n+]1ccc(C(=O)N/N=C/c2ccco2)cc1,"inconclusive: 89.1 µM [inhibitor, single point]"
2,COc1cccc(C2C=C(c3ccccc3)Nc3c(C(=O)Nc4ccccc4)cnn32)c1OC (configuration not stated),"inconclusive: 17.8 µM [inhibitor, partial curve]"
3,CCOc1ccccc1NC(=O)CCc1nnc2ccc(NCc3ccco3)nn12,"inconclusive: 50.1 µM [inhibitor, partial curve]"
4,CN(C(=S)NC(=O)C1CC1)c1ccc(O)cc1,active: 89.1 µM
5,COCc1cc(=O)n2[nH]c(C)nc2n1,"inconclusive: 100 µM [inhibitor, single point]"
6,COc1cccc(/C(O)=C2/C(=O)C(=O)N(CCN3CCOCC3)C2c2cccs2)c1 (configuration not stated),"inconclusive: 89.1 µM [inhibitor, single point]"
7,COCCNC(=O)c1cccc(OC2CCN(Cc3cccc(SC)c3)CC2)c1,inactive
8,O=C(CSc1ncn(-c2ccccc2)n1)N1CCc2ccccc21,"inconclusive: 25.1 µM [inhibitor, full curve, poor fit]"
9,Cc1cc(C(=O)COC(=O)c2ccc3c(c2)NC(=O)CS3)c(C)n1CC1CCCO1 (configuration not stated),"inconclusive: 35.5 µM [inhibitor, partial curve]"
10,CC(=O)C1=C(c2ccc(Cl)c(Cl)c2)N(C(C)=O)n2c(nnc2-c2ccccc2)S1,"inconclusive: 89.1 µM [inhibitor, single point]"
11,O=C(N/N=C/C(Br)=C/c1ccccc1)c1ccccc1[N+](=O)[O-],"inconclusive: 79.4 µM [inhibitor, partial curve]"
12,Cc1ccc(NC(=O)CNc2ccc(Cl)c(Cl)c2)cc1S(=O)(=O)N(C)C,"inconclusive: 70.8 µM [inhibitor, single point]"
13,CN(C)c1ccnc2c[cH-]cc12.[Fe].c1ccc(-[c-]2[c-](-c3ccccc3)[c-](-c3ccccc3)[c-](-c3ccccc3)[c-]2-c2ccccc2)cc1 (configuration not stated),active: 3.55 µM and active: 3.98 µM
14,CC(=O)c1cnc(Oc2cc(Cl)ccc2Cl)nc1C,"inconclusive: 89.1 µM [inhibitor, single point]"
15,O=S(=O)(Nc1ccc(F)c(Cl)c1)c1ccc(Br)s1,inactive
16,CCn1c(-c2cccc(S(=O)(=O)N3CCCC3)c2)n[nH]c1=S,active: 6.31 µM
17,S=c1[nH]nc(C2CCCCC2)n1/N=C/c1cccs1,active: 50.1 µM
18,CCOC(=O)c1ccc(N2C(=O)c3n[nH]c(-c4cccs4)c3C2c2ccc(CC)cc2)cc1 (configuration not stated),"inconclusive: 39.8 µM [inhibitor, full curve, poor fit]"
19,CCC(c1nnnn1CCc1ccccc1)N(Cc1ccco1)Cc1cc2cccc(C)c2[nH]c1=O (configuration not stated),inactive
20,COC(=O)c1ccc(NC(=S)N2CCN(CCO)CC2)cc1,inactive
21,Cc1cc(/C=N/n2c(COc3ccccc3)nc3ccccc3c2=O)c(O)c([N+](=O)[O-])c1,active: 12.6 µM
22,O=C(c1ccc2c(=O)n3c(nc2c1)CCCCC3)N1CCCCC1,"inconclusive: 100 µM [inhibitor, partial curve]"
23,COc1ccc(CN2CCN(C(=O)c3cccc4ccccc34)CC2)cc1Br,active: 17.8 µM
24,Cc1ccc(NC(=O)c2[nH]cnc2C(=O)NN)cc1,"inconclusive: 1.58 µM [inhibitor, full curve, poor fit]"

row,SMILES,Potency
1,O=S(=O)(c1ccc(-c2ccon2)s1)N1CCN(c2ccncc2)CC1,inactive
2,CN(CC(=O)O)Cc1oc(CO)cc(=O)c1O,"inconclusive: 0.631 µM [inhibitor, full curve, poor fit]"
3,COc1ccc(/C(C)=N/NC(=O)c2ccccc2OCc2ccccc2)c(OC)c1,active: 17.8 µM
4,CCOC(=O)c1sc(NN=C(C(=O)OC)C(=O)OC)c(C(=O)OCC)c1C,"inconclusive: 22.4 µM [inhibitor, full curve, poor fit]"
5,Cc1ccc(OCc2cc(C(=O)N(C)Cc3cc(C4CC4)n[nH]3)no2)cc1C,"inconclusive: 50.1 µM [inhibitor, partial curve]"
6,Cc1ccc(C)c(N2CCN(S(=O)(=O)c3ccc(-c4coc(C)n4)cc3)CC2)c1,inactive
7,Cc1ccc2cc(/C=N/NC(=O)c3ccc(F)cc3)c(Cl)nc2c1,inactive
8,COc1ccc(-n2cc(-c3ccc4c(c3)OCO4)n(CC(=O)Nc3cccc(C)c3C)c2=O)c(OC)c1,"inconclusive: 10 µM [inhibitor, full curve]"
9,CCC(CC)C(=O)Nc1ccccc1SCc1cc(=O)c2cccc(C)c2[nH]1,inactive
10,Cc1cc(=O)[nH]c(N/N=C/c2ccc(Cl)c([N+](=O)[O-])c2)n1,inactive
11,CCc1ccc(OCC2c3cc(OC)c(OC)cc3CCN2C(=S)NCCOC)cc1 (configuration not stated),"inconclusive: 70.8 µM [inhibitor, single point]"
12,Cc1nnc2sc(SCC(=O)Nc3ccc(Br)cc3)nn2c1=O,"inconclusive: 89.1 µM [inhibitor, single point]"
13,COc1cc2c(cc1OC)C1(Nc3c-2c(-c2ccccc2)nn3-c2ccccc2)C(=O)Nc2ccccc21 (configuration not stated),"inconclusive: 56.2 µM [inhibitor, partial curve]"
14,O=S(=O)(NCc1ccc(Cl)cc1)c1ccc2[nH]c3c(c2c1)CCCC3,"inconclusive: 20 µM [inhibitor, full curve]"
15,C=CCn1c(C)cc(C2=NNC(=NC(C)(C)C)SC2)c1C,"inconclusive: 56.2 µM [inhibitor, partial curve]"
16,CCOC(=O)N1CCN(Cc2nc(N)nc(Nc3ccccc3C)n2)CC1,"inconclusive: 79.4 µM [inhibitor, partial curve]"
17,COc1ccccc1C(CNc1ccc(S(=O)(=O)N2CCCC2)cc1[N+](=O)[O-])N(C)C (configuration not stated),"inconclusive: 50.1 µM [inhibitor, partial curve]"
18,Cc1nn(-c2ccccc2)c(Cl)c1/C=N/NC(=O)c1[nH]ncc1Br,inactive
19,Cc1ccc(-n2cnc3cc(C(=O)NCc4ccc(F)cc4)ccc32)c(C)c1,"inconclusive: 56.2 µM [inhibitor, partial curve, poor fit]"
20,Cc1nc2cc(C(F)(F)F)ccc2n1CCNc1nc(-c2ccc(F)cc2)cs1,"inconclusive: 89.1 µM [inhibitor, partial curve]"
21,COc1cc(CNCc2ccc(SC)cc2)cc(OC)c1,active: 1.41 µM
22,Cc1nc2ncccn2c1-c1csc(Nc2ccccc2)n1,"inconclusive: 20 µM [inhibitor, full curve, poor fit]"
23,CC(Sc1nc2c(c(=O)[nH]1)CCCC2)C(=O)Nc1cc(C(F)(F)F)ccc1Cl (configuration not stated),inactive
24,C(=N\Nc1nc(N2CCCCC2)nc(N2CCCCC2)n1)/c1c[nH]c2ccccc12,active: 35.5 µM

row,SMILES,Potency
1,O=C(CSc1nccc(=O)[nH]1)N1N=C2/C(=C/c3ccco3)CCCC2C1c1ccco1 (configuration not stated),active: 44.7 µM
2,COCCNc1oc(Cc2cccc3ccccc23)nc1C#N,inactive
3,CCOC(=O)C1=C(C)N(C)C(=O)NC1c1cc2c(cc1[N+](=O)[O-])OCO2 (configuration not stated),inactive
4,COc1ccc(/C=c2/sc3n(c2=O)C(c2ccccc2OC)C2=C(N=3)c3ccccc3CC2)cc1O (configuration not stated),"inconclusive: 44.7 µM [inhibitor, partial curve]"
5,CN(C)c1ccnc2sc(C(N)=O)c(N)c12,"inconclusive: 79.4 µM [inhibitor, partial curve]"
6,C/C(=N\NC(=S)NCCc1ccccc1)c1ccc(Cl)cc1,"inconclusive: 31.6 µM [inhibitor, single point]"
7,Nc1ccc2ncccc2c1N,inactive
8,CCOC(=O)c1c(NS(=O)(=O)c2ccc(Br)cc2)sc2c1CCC2,active: 79.4 µM
9,CCSc1ncc(Cl)c(C(=O)N(Cc2ccccc2)c2ccc(OC)cc2)n1,inactive
10,CCOc1cc2c(cc1O)CCC1C2CCC2(C)C(O)CCC12 (configuration not stated),inactive
11,COc1cc(C(=O)Nc2ccc(-n3c(C)nc4ccccc4c3=O)cc2)cc(OC)c1OC,"inconclusive: 89.1 µM [inhibitor, partial curve, poor fit]"
12,C=CCn1c(OCc2ccccc2)n[nH]c1=S,active: 3.16 µM
13,Nc1nc(-c2ccccc2)c(-c2ccccc2)s1,"inconclusive: 56.2 µM [inhibitor, partial curve]"
14,CN1CCc2cc(Cl)c(O)cc2[C@@H](c2ccccc2)C1,inactive
15,Cc1csc(NC(=O)c2cccc([N+](=O)[O-])c2C(=O)O)n1,inactive
16,Cn1c(N)c(C(=O)Nc2ccc(-c3ccccc3)cc2)sc1=S,active: 50.1 µM
17,O=C(Nc1ccc(F)cc1)C1CCN(S(=O)(=O)c2ccc3c(c2)CCCN3C(=O)C2CCC2)CC1,inactive
18,CC1C/C(=C/c2cccs2)C(=O)/C(=C/c2cccs2)C1 (configuration not stated),"inconclusive: 12.6 µM [inhibitor, partial curve]"
19,c1ccc(Cn2c(CNc3nc4ccccc4n3CCN3CCOCC3)nc3ccccc32)cc1,"inconclusive: 56.2 µM [inhibitor, partial curve]"
20,Cc1ccc(N2CCN(C(=O)CNS(=O)(=O)c3ccc(Br)s3)CC2C)cc1 (configuration not stated),"inconclusive: 28.2 µM [inhibitor, full curve]"
21,O=C(Nc1ccc2snnc2c1)N1CCOCC1,inactive
22,C/C(=N\NC(=O)c1ccoc1C)c1ccc(Cl)s1,inactive
23,CCOc1cc2[nH]c(=S)n(Cc3ccc(C(=O)NCCCN(CC)CC)cc3)c(=O)c2cc1OCC,"inconclusive: 15.8 µM [inhibitor, partial curve, poor fit]"
24,O=C(CS(=O)(=O)c1ccc(Cl)cc1)Nc1nnc(-c2cccs2)o1,"inconclusive: 100 µM [inhibitor, single point]"
